The record followed here is publication PMC4336329 (PLoS ONE, 2015).

The campaign covered roughly 310,000 compounds. About 2,200 (0.71%) showed an effect of 50% or more. Effects have a minus sign here. The list shows a part of the results.

human ether-à-go-go-related gene (hERG) potassium channel, sequence (Q12809 whole entry, looked up): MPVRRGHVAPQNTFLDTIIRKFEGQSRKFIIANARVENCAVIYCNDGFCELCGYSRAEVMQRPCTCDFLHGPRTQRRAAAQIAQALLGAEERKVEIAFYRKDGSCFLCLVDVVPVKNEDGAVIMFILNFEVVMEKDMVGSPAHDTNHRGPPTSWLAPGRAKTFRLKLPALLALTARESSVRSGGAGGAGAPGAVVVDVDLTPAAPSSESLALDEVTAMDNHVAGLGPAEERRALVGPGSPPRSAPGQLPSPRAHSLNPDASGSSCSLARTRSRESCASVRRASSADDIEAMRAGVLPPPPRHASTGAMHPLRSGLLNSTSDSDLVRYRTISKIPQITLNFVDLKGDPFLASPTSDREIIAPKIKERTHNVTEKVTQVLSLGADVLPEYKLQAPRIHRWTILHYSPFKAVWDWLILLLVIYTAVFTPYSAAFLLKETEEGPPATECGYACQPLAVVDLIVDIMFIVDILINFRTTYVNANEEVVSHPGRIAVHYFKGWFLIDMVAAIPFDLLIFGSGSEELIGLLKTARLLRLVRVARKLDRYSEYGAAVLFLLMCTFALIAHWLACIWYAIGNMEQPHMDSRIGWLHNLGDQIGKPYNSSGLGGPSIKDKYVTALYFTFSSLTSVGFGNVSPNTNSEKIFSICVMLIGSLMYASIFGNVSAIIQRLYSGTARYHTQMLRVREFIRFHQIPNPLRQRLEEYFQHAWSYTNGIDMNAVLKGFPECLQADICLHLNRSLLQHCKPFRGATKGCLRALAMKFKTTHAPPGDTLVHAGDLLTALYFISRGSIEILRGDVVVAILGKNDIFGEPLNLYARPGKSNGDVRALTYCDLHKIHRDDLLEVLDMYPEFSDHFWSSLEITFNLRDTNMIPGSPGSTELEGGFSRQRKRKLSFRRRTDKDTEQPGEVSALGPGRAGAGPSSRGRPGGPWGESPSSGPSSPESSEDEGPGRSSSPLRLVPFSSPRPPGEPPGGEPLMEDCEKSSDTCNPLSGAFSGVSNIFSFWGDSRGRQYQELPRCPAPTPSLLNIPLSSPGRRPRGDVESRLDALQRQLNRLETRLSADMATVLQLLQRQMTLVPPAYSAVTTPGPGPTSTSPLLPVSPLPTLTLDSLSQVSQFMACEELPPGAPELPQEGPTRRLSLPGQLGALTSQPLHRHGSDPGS

This experiment concerns the target human ether-à-go-go-related gene (hERG) potassium channel (human, UniProt Q12809). Kind of experiment: primary screen, population patch clamp on CHO cells stably expressing hERG.
`Cc1ccc(C(O)P(=O)(OC(C)C)c2ccc(N(C)C)cc2)cc1` (centres unmarked): the “hERG current change (%, negative = inhibition) at 1uM” value was determined as 12.3%.
Then `Nc1nc2n(n1)C(c1ccco1)CC(c1ccc(F)cc1)N2` (centres unmarked), with 5.87%; and `Cc1ccc(-c2nnc3sc(C4COc5ccccc5O4)nn23)cc1` (centres unmarked), with 0.653%; and `O=C(NC1CCCC1)C(c1ccccc1)N(C(=O)c1csnn1)c1ccccc1F` (centres unmarked), with 8.71%.
The figure for `CC(C)(C)Nc1ncnc2c1cnn2-c1ccccc1` is 2%.
Then `Cc1cc(S(=O)(=O)Nc2cccnc2)c(Cl)cc1Cl`, with 5.14%.
On to `Cc1c(NC(=O)Cn2[nH]c(=O)c3ccccc3c2=O)c(=O)n(-c2ccccc2)n1C`, for which the “hERG current change (%, negative = inhibition) at 1uM” value is reported as 8.84%.
Then `CC(=O)Nc1ccc(S(=O)(=O)Nc2nc3ccccc3nc2Nc2cccc(S(N)(=O)=O)c2)cc1`, with 11.9%.
Then `O=C(c1ccc2c(Cl)c3c(nc2c1)CCCC3)N1CCN(c2ccc(F)cc2)CC1`, with 16.7%; and `CO/N=C/NC(=O)c1c(OC)ccnc1Oc1ccc(F)cc1`, with 7.74%; and `CCc1cc2cccc(C)c2nc1SCC(=O)c1ccc(NC(C)=O)cc1`, with 1.18%.
Then `Cc1ccc2oc(=O)n(Cc3ccccc3OC(C)C)c2c1`, with 9.37%; and `COc1ccc(NC(=O)N(CCC(C)C)C(C)c2ccccn2)c(OC)c1` (centres unmarked), with 8.17%.
In the case of `COc1cccc(S(=O)(=O)NC2CCN(C#N)C2)c1` (centres unmarked), the “hERG current change (%, negative = inhibition) at 1uM” value came to 11%.
Then `O=C(Nc1ccc(Br)cc1)c1cnc[nH]1`, with 10.3%; and `Cc1ccc(NC(=O)CCn2c(=S)oc3ccccc32)cc1F`, with 16.7%; and `C=CC[C@H]1CC(Cc2ccccc2)=C[C@H](CC=C)N1.Cl`, with 6.17%.
Then `O=C(CCC(=O)N(Cc1ccco1)C(C(=O)NC1CCCC1)c1ccncc1)Nc1cccnc1` (centres unmarked), with 3.43%; and `CCc1nnc(NC(=O)C2CCCO2)s1` (centres unmarked), with 12.5%; and `O=C(Nc1ncc(Cc2cccc(C(F)(F)F)c2)s1)C1CCCO1` (centres unmarked), with 3.93%.
The figure for `COc1ccc(N2C(=O)CSC2c2ccc(F)cc2)cc1` (centres unmarked) is 13.3%; for `CCO[C@@H]1OC(C(=O)N2CCOCC2)=C[C@H](c2ccccc2)[C@H]1CCCO` it is 20.8%; for `COc1ccc(/C=N/N=C/c2ccc(OC)c(OC)c2)cc1OC` it is 9.92%.
For the compound `CC1=NN(C(N)=S)C(=O)C1N=Nc1c(Br)cc(Br)cc1Br` (centres unmarked), the “hERG current change (%, negative = inhibition) at 1uM” value is 26.2%.
Then `O=C(O)C(=O)O.OC(Cn1cnnc1)c1ccccc1` (centres unmarked), with 9.15%; and `N#Cc1ccc(/C=C/C(=O)c2ccc3c(c2)OCO3)cc1`, with 12.3%; and `CCN(CC)C(=O)c1ccc(COc2ccccc2Cl)o1`, with 8.39%.
As for `Cc1sc(NC(=O)COc2ccccc2)c(C#N)c1-c1ccccc1`, the “hERG current change (%, negative = inhibition) at 1uM” value was found to be 10.8%.
The figure for `Cc1cccc(CN2CCCC(C(=O)Nc3ccc(-c4cscn4)cc3)C2)c1` (centres unmarked) is -3.59%; for `COc1ccccc1CNC(=O)CSc1ccc(-c2cccs2)nn1` it is 7.71%.
Then `Cc1c(N=Cc2ccc[nH]2)c(=O)n(-c2ccccc2)n1C`, with 14.4%; and `CC(C)CNC(=O)c1cccc(NC(=O)c2ccc(Cl)c([N+](=O)[O-])c2)c1`, with 3.79%; and `S=C(Nc1ccc(Cl)cc1)NC1CCCCC1`, with 8.29%.
Then `COc1ccccc1C(=O)N/C(=C/c1ccccc1)C(=O)Nc1ccc(C(=O)O)cc1`, with 16.7%; and `CCCc1c(C(=O)N/N=C/c2ccccc2C(F)(F)F)nnn1-c1nonc1N`, with 11%.
As to `NS(=O)(=O)c1ccc(CCNC(=O)CSc2nc3ccccc3c(=O)n2CCC(=O)N2CCCCC2)cc1`, the “hERG current change (%, negative = inhibition) at 1uM” value turned out to be 5.72%.
Then `O=S(=O)(NCCc1ccccc1)c1cccc2cccnc12`, with 12.1%.
The figure for `COc1ccccc1-c1cc(N)n(S(=O)(=O)c2ccc(F)c(C)c2)n1` is 8.32%.
Then `CCCCCCc1cc2cc(/C(N)=N/NC(=O)c3ccncc3)c(=O)oc2cc1O`, with 13.4%.
`CNS(=O)(=O)c1cnccc1N1CCN(c2cccc(C(F)(F)F)c2)CC1`: the “hERG current change (%, negative = inhibition) at 1uM” value was 3.11%.
For the compound `N#Cc1ccc(OCc2nnc3n2CCCCC3)cc1`, the “hERG current change (%, negative = inhibition) at 1uM” value worked out at 1.92%.
The figure for `Cc1ccc(N(C(=O)CC2NC(=O)NC2=O)C2(C(=O)NC3CCCC3)CCCCC2)cc1` (centres unmarked) is 11.7%; for `O=C(COC(=O)CCSc1ccccc1Cl)Nc1ccc(F)cc1F` it is 9.39%; for `CN(C)C(=O)c1cc(-c2ccccc2)no1` it is 18.9%.
Then `Cc1ccc(N(C)C(=O)CC(C)S(=O)(=O)c2ccc3c(c2)NC(=O)CO3)cc1` (centres unmarked), with 1.63%.
`Cc1cccc(C)c1-n1nnnc1C1(Nc2ccccc2)CCCCC1`: the “hERG current change (%, negative = inhibition) at 1uM” value was determined as 2.95%.
Then `COc1ccc(Nc2ncnc3c2cnn3Cc2ccccc2)cc1`, with 3.65%.
The figure for `CC(C)CCn1c(C(C)O)nc2ccccc21` (centres unmarked) is 8.07%; for `CCOc1ccc(NC(=O)C2CCN(S(=O)(=O)CC)CC2)cc1` it is 11.9%.
The figure for `Cc1ccccc1NS(=O)(=O)c1cc(OCC(N)=O)c(C)cc1Cl` is 8.43%.
In the case of `Cc1ccccc1CC1(CO)CCCN(C(=O)CCN2CCCO2)C1` (centres unmarked), the “hERG current change (%, negative = inhibition) at 1uM” value was 15.6%.
The figure for `CCC(=O)N(CC)Cc1cc(=O)[nH]c2ccccc12` is -1.15%; for `O=C(NC(=S)NCCO)c1sc2ccccc2c1Cl` it is 7.91%.
Consider `COc1cnc(-c2ccccn2)nc1Oc1cccc(C(F)(F)F)c1`, for which the “hERG current change (%, negative = inhibition) at 1uM” value is reported as 10.4%.
Then `COc1cc(CNc2ccc(N3CCCC3)cc2)cc(Cl)c1OC`, with 2.12%; and `CCOC(=O)C(NC(=O)c1ccccc1)=C1C=C(C)OC(C)=C1`, with 16.3%.
Then `C=CCn1c(O)c(N=O)c2ccccc21`, with 8.22%.
Then `O=C(COC(=O)c1cccc(-n2cnnn2)c1)c1ccc(Br)cc1`, with 21.7%.
Consider `COCc1cc(C)nc2sc3c(=O)oc(C)nc3c12`, for which the “hERG current change (%, negative = inhibition) at 1uM” value stood at 5.86%.
